Experiments:
[1] = target: T1, biotinylated murine 4-1BB Fc(kih) (murine, UniProt P20334 24-187, biotinylated); test: SPR (Biacore T200, 25 C): biotinylated murine 4-1BB Fc(kih) on SA chip, construct at 200 nM as first analyte, FAP at 500 nM as second analyte
T1 construct: also called immobilized murine 4-1BB
T1 sequence: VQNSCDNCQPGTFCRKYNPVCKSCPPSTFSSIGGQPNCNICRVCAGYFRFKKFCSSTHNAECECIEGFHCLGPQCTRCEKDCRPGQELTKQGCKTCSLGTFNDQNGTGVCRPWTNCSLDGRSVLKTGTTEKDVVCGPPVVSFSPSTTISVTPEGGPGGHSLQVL
Procedure: (§1) The capacity of binding simultaneously murine 4-1BB Fc(kih) and human or murine FAP was assessed by surface plasmon resonance (SPR) in the manner as described in WO 2016/075278 A1. All SPR experiments were performed on a Biacore T200 at 25° C. with HBS-EP as running buffer (0.01 M HEPES pH 7.4, 0.15 M NaCl, 3 mM EDTA, 0.005% Surfactant P20, Biacore, Freiburg/Germany). Biotinylated murine 4-1BB Fc(kih) was directly coupled to a flow cell of a streptavidin (SA) sensor chip. Immobilization levels up to 600 resonance units (RU) were used.
(§2) The FAP-targeted mu4-1BBL construct was passed at a concentration range of 200 nM with a flow of 30 μL/minute through the flow cells over 90 seconds and dissociation was set to zero sec. Human or murine FAP was injected as second analyte with a flow of 30 μL/minute through the flow cells over 90 seconds at a concentration of 500 nM. The dissociation was monitored for 120 sec. Bulk refractive index differences were corrected for by subtracting the response obtained in a reference flow cell, where no protein was immobilized.

human FAP = target: T2, human FAP (human, UniProt Q12884 27-760); test: SPR (Biacore T200, 25 C): biotinylated murine 4-1BB Fc(kih) on SA chip, construct at 200 nM as first analyte, human FAP at 500 nM as second analyte
T2 construct: also called Human (hu) FAP
Procedure: as §1, §2

murine FAP = target: T3, murine FAP (mouse, UniProt P97321 27-761); test: SPR (Biacore T200, 25 C): biotinylated murine 4-1BB Fc(kih) on SA chip, construct at 200 nM as first analyte, murine FAP at 500 nM as second analyte
T3 construct: also called mouse FAP

Measured: binding result

B1: hybrid surrogate FAP-mu4-1BBL (Fc fusion)
heavy 1: RTEPRPALTITTSPNLGTRENNADQVTPVSHIGCPNTTQQGSPVFAKLLAKNQASLSNTTLNWHSQDGAGSSYLSQGLRYEEDKKELVVDSPGLYYVFLELKLSPTFTNTGHKVQGWVSLVLQAKPQVDDFDNLALTVELFPCSMENKLVDRSWSQLLLLKAGHRLSVGLRAYLHGAQDAYRDWELSYPNTTSFGLFLVKPDNPWEGGGGSGGGGSRTEPRPALTITTSPNLGTRENNADQVTPVSHIGCPNTTQQGSPVFAKLLAKNQASLSNTTLNWHSQDGAGSSYLSQGLRYEEDKKELVVDSPGLYYVFLELKLSPTFTNTGHKVQGWVSLVLQAKPQVDDFDNLALTVELFPCSMENKLVDRSWSQLLLLKAGHRLSVGLRAYLHGAQDAYRDWELSYPNTTSFGLFLVKPDNPWEGGGGSGGGGSRTVAAPSVFIFPPSDRKLKSGTASVVCLLNNFYPREAKVQWKVDNALQSGNSQESVTEQDSKDSTYSLSSTLTLSKADYEKHKVYACEVTHQGLSSPVTKSFNRGE[no letters for human IgG1 Fc with changes]
light 1: RTEPRPALTITTSPNLGTRENNADQVTPVSHIGCPNTTQQGSPVFAKLLAKNQASLSNTTLNWHSQDGAGSSYLSQGLRYEEDKKELVVDSPGLYYVFLELKLSPTFTNTGHKVQGWVSLVLQAKPQVDDFDNLALTVELFPCSMENKLVDRSWSQLLLLKAGHRLSVGLRAYLHGAQDAYRDWELSYPNTTSFGLFLVKPDNPWEGGGGSGGGGSASTKGPSVFPLAPSSKSTSGGTAALGCLVEDYFPEPVTVSWNSGALTSGVHTFPAVLQSSGLYSLSSVVTVPSSSLGTQTYICNVNHKPSNTKVDEKVEPKSC
heavy 2: EVQLLESGGGLVQPGGSLRLSCAASGFTFSSYAMSWVRQAPGKGLEWVSAIIGSGASTYYADSVKGRFTISRDNSKNTLYLQMNSLRAEDTAVYYCAKGWFGGFNYWGQGTLVTVSSASTKGPSVFPLAPSSKSTSGGTAALGCLVKDYFPEPVTVSWNSGALTSGVHTFPAVLQSSGLYSLSSVVTVPSSSLGTQTYICNVNHKPSNTKVDKKVEPKSCDKTHTCPPCPAPEAAGGPSVFLFPPKPKDTLMISRTPEVTCVVVDVSHEDPEVKFNWYVDGVEVHNAKTKPREEQYNSTYRVVSVLTVLHQDWLNGKEYKCKVSNKALGAPIEKTISKAKGQPREPQVCTLPPSRDELTKNQVSLSCAVKGFYPSDIAVEWESNGQPENNYKTTPPVLDSDGSFFLVSKLTVDKSRWQQGNVFSCSVMHEALHNHYTQKSLSLSPGK
light 2: EIVLTQSPGTLSLSPGERATLSCRASQSVTSSYLAWYQQKPGQAPRLLINVGSRRATGIPDRFSGSGSGTDFTLTISRLEPEDFAVYYCQQGIMLPPTFGQGTKVEIKRTVAAPSVFIFPPSDEQLKSGTASVVCLLNNFYPREAKVQWKVDNALQSGNSQESVTEQDSKDSTYSLSSTLTLSKADYEKHKVYACEVTHQGLSSPVTKSFNRGEC
notes: also called FAP-targeted mu4-1BBL construct; hybrid FAP-mu4-1BBL
binds: [1] | human FAP | murine FAP

Source: patent publication US20210095002A1 (Hoffmann-La Roche, published 2021)
